# Test results published in the supplement of paper PMC8728848.
# Some of the results follow.
# B1: Epa10 (protein)
# chain: MNEKIFRYLTLLFLFELARSLPVEDKLNIKKVFEKRAVDFTPFAHYPRPEGCSSPPNSVSVGLHMNLYNYPYLYVKPSTKGMFTNDTNSDADGETDGDSAGGIEGRAGQCWNPEYQDPNFPRFGYKQYGEFGASDNVNGDISWDHNEFTEGCKPVLAALPPGYNYPDEITFSNFTMVLSGYFKPKTSGVYKFELKADDFILFNFGAKNAFECCNREESIDNFGPYVAYAMWPNQADQELEVYLFEDSYYPLRLFYNNRDYHSKFKIGFYPPGQTTITFDFDGYLFMLDDTGNECRDSIRYRTVCDDKVVDDTTYSTRYSTSMVPGGGSDVITIYYIRMKCEEEDCLGQWDPINNVCYSPDDCADDGGYWNGQMCDQSCKLEGGIVNPDTGDCDKSCIESGGFLDENGNCDTTCRDDGGMLVEGQCDYQCKEAGGILVGDHCDTTCVDSGGKLNEDGTCDHSCRDQGGQLDENGECDTSCKDSGGMLIEGECDTSCKDEGGQLDDNNECINHCKDQGGIIDENGNCDTSCKDSGGKLDESGACDTSCRDDGGIIDENGNCNTTCRDDGGIIVGDHCDTSCRDAGGILIEDHCDTTCRDSGGKLNEDGTCDHSCRDQGGQLDENGKCDYSCKNGGGKLDEDGNCDMSCKENGGKLDENGDCDLSCKEDGGKLDGNGDCDYSCKEEGGVIDESGNCNTTCKDSGGQIIDGECNYGCIEVGGVVIDGECDTSCIDSGGILDGDGNCDRSCIESGGVLEDGACNTTCRDSGGQLNVDGTCDTSCRDDGGMLVEGQCDYQCKEAGGILEDGECVFPPTSSSTSETSSTTDQSSLQSDDSSMESSSTPMDSSTIESSSSEIITSESESESVPIASSSSEVMTSESESESIPILTSSSEIPIASSSSEIPVASSSSEIIIPESESESVPVASSSSEIPIASSSSEIPVASSSSEIPVASSSSEIIIPESESESIPIESTSSEAVSSRSESDSSYPTPTPTTTTITTWPNPIQPTTSNSSPIVSSSTETPGIAESSSRISDLESSRRTSILGDDRTRTRTTITSTITEDGQIITITTTVTGFVPEPTGETEGNGSDDENPENPIENNTDENEFLDPEFTDDIPDDPAGPEDNGNGPVNPEQGNDNDPVNLEDSGNNGAVNPEQAPVNDEDNGGNDPVNPEQDNNNGPANPGQDSTNGSGNSDQIDNNPPTPEENAGDGNSNGNDPADPSRRTSILGDERTRASPGGTSQPTGANGNVNGNSPGANVNGGGTGNSNNNNNNNNNNNNGNAPNGGDGSNGDANQGPSRRTSLLGDERTRAGQAAPTGGSSPDNGIAGDTSNNGGAIVSQQVDDGGAGSPRRTSILGDVRSRTTLNGEVLNFEGSGVRRAVAGNLALPLMMVGLVFNL
# Columns and labels:
# Assay in all cases: glycan array binding signal (z-score within array); higher = stronger binding
# Settings in all cases: glycan notation: IUPAC condensed, linker removed
# [1] = target: GalNAc(b1-4)GlcNAc(b1-2)Man
# Procedure, shortened: (§1)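 Arrays were curated from the Consortium for Functional Glycomics database, 3228 in total, and kept only where the protein sequence was available. Binding is expressed as a within-array Z-score. This score was averaged across arrays of the same protein sequence at different concentrations or buffers and across linkers, and negative values can be read as non-binding.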
# [2] = target: GalNAc(b1-4)GlcNAc(b1-2)Man(a1-3)[GalNAc(b1-4)GlcNAc(b1-2)Man(a1-6)]Man(b1-4)GlcNAc(b1-4)GlcNAc
# Procedure, shortened: as §1
# [3] = target: GalNAc(b1-4)GlcNAc(b1-3)GalNAc(b1-4)GlcNAc
# Procedure, shortened: as §1
# [4] = target: GalNAc(b1-4)GlcNAc6S
# Procedure, shortened: as §1
# [5] = target: GalNAc(b1-6)GalNAc
# Procedure, shortened: as §1
# [6] = target: GalNAc3S(b1-4)GlcNAc
# Procedure, shortened: as §1
# [7] = target: GalNAc3S(b1-4)GlcNAc3S
# Procedure, shortened: as §1
# [8] = target: GalNAc3S(b1-4)[Fuc(a1-3)]GlcNAc
# Procedure, shortened: as §1
# [9] = target: GalNAc4S6S(b1-4)GlcNAc
# Procedure, shortened: as §1
# [10] = target: GalNAc6S(b1-4)GlcNAc
# Procedure, shortened: as §1
# [11] = target: Glc(a1-4)Glc
# Procedure, shortened: as §1
# [12] = target: Glc(a1-4)Glc(a1-4)Glc(a1-4)Glc
# Procedure, shortened: as §1
# [13] = target: Glc(a1-6)Glc(a1-6)Glc
# Procedure, shortened: as §1
# [14] = target: Glc(a1-6)Glc(a1-6)Glc(a1-6)Glc
# Procedure, shortened: as §1
# [15] = target: Glc(b1-4)Glc
# Procedure, shortened: as §1
# [16] = target: Glc(b1-6)Glc
# Procedure, shortened: as §1
# [17] = target: GlcA(b1-3)Gal
# Procedure, shortened: as §1
# [18] = target: GlcA(b1-3)GlcNAc
# Procedure, shortened: as §1
# [19] = target: GlcA(b1-6)Gal
# Procedure, shortened: as §1
# [20] = target: GlcA3S(b1-3)Gal(b1-4)GlcNAc(b1-2)Man
# Procedure, shortened: as §1
# [21] = target: GlcA3S(b1-3)Gal(b1-4)GlcNAc(b1-3)Gal(b1-4)Glc
# Procedure, shortened: as §1
# [22] = target: GlcNAc(a1-3)Gal(b1-4)GlcNAc
# Procedure, shortened: as §1
# [23] = target: GlcNAc(a1-4)Gal(b1-3)GlcNAc
# Procedure, shortened: as §1
# [24] = target: GlcNAc(a1-4)Gal(b1-4)GalNAc
# Procedure, shortened: as §1
# [25] = target: GlcNAc(a1-4)Gal(b1-4)GlcNAc
# Procedure, shortened: as §1
# [26] = target: GlcNAc(a1-4)Gal(b1-4)GlcNAc(b1-3)Gal(b1-4)Glc
# Procedure, shortened: as §1
# [27] = target: GlcNAc(a1-4)Gal(b1-4)GlcNAc(b1-3)Gal(b1-4)GlcNAc
# Procedure, shortened: as §1
# [28] = target: GlcNAc(a1-4)Gal(b1-4)GlcNAc(b1-3)Gal(b1-4)GlcNAc(b1-3)Gal(b1-4)GlcNAc
# Procedure, shortened: as §1
# [29] = target: GlcNAc(a1-4)Gal(b1-4)GlcNAc(b1-3)Gal(b1-4)[Fuc(a1-3)]GlcNAc(b1-3)Gal(b1-4)[Fuc(a1-3)]GlcNAc
# Procedure, shortened: as §1
# [30] = target: GlcNAc(a1-6)Gal(b1-4)GlcNAc
# Procedure, shortened: as §1
binder,measurement,setting,value
B1,glycan array binding signal (z-score),[1],-0.312
same,glycan array binding signal (z-score),[2],-0.099
same,glycan array binding signal (z-score),[3],-0.3
same,glycan array binding signal (z-score),[4],-0.276
same,glycan array binding signal (z-score),[5],-0.325
same,glycan array binding signal (z-score),[6],-0.253
same,glycan array binding signal (z-score),[7],-0.308
same,glycan array binding signal (z-score),[8],-0.263
same,glycan array binding signal (z-score),[9],-0.238
same,glycan array binding signal (z-score),[10],-0.25
same,glycan array binding signal (z-score),[11],-0.232
same,glycan array binding signal (z-score),[12],-0.304
same,glycan array binding signal (z-score),[13],-0.246
same,glycan array binding signal (z-score),[14],-0.268
same,glycan array binding signal (z-score),[15],-0.234
same,glycan array binding signal (z-score),[16],-0.244
same,glycan array binding signal (z-score),[17],-0.162
same,glycan array binding signal (z-score),[18],-0.244
same,glycan array binding signal (z-score),[19],-0.122
same,glycan array binding signal (z-score),[20],-0.276
same,glycan array binding signal (z-score),[21],-0.305
same,glycan array binding signal (z-score),[22],-0.222
same,glycan array binding signal (z-score),[23],-0.238
same,glycan array binding signal (z-score),[24],-0.249
same,glycan array binding signal (z-score),[25],-0.262
same,glycan array binding signal (z-score),[26],-0.3
same,glycan array binding signal (z-score),[27],-0.279
same,glycan array binding signal (z-score),[28],-0.217
same,glycan array binding signal (z-score),[29],-0.068
same,glycan array binding signal (z-score),[30],0.673
